Measurements taken from PubChem BioAssay AID1508624 (National Center for Advancing Translational Sciences (NCATS), 2021).
The whole screen tested about 48,000 compounds, of which about 120 (0.25%) were called active. About 4% were inconclusive and are not listed. Calls come from the whole dose curve; as a rule, active = well fitted activation curve with a large enough effect; inconclusive = small, poorly fitted or top-dose-only effect, or another doubt; inactive = no such curve, though single readings can be large or run the other way. The list shows a part of the results.

Assay: Primary qHTS for Identification of Small Molecule Activators of Huntingtin-Antisense Promoter Activity; note: nearly all actives have a fitted effect of over 55% in size
Settings: HEK293 HTT-AS promoter firefly luciferase reporter, 24 h; series mostly up to 57.5 µM; activity change, positive = activation: at the top concentration
How it was run: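 HEK293 Fluc reporter, 2,500 cells/well, 24 h pre-culture; cpds up to 57.5 uM final, 24 h 37 degrees C; Dual-Glo, 10 min RT; normalized vehicle = 0%, zero RLU = -100%.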

Activity change, positive = activation, inactive:
COc1ccc2c(c1)CC(NC(=O)Nc1ccc(NC(C)=O)cc1)CO2 (stereo not drawn) -8.13%
COc1ccccc1CNC(=O)C1CCN(Cc2cc3ccccc3n2Cc2cccc(C)c2)CC1 -22.5%
Cc1ccccc1Cn1c(=O)n(CCCCC(=O)NCc2ccccc2Cl)c(=O)c2ccccc21 -16.1%
O=C(NCc1ccccc1Cl)c1ccc(NC(=O)c2nsc3ccccc23)cc1 -35.8%
O=C(CSc1nnc(-c2ccncc2)n1-c1ccccc1)Nc1ccc(Br)cc1 2.72%
CCOc1cc(C)c(C(C)C)cc1S(=O)(=O)n1ccnc1CC -35.4%
CCOc1ccc(NC(=O)C2CCN(S(=O)(=O)c3ccc4c(c3)oc(=O)n4C)CC2)cc1 -9.36%
COc1ccc2c(Oc3ccc(NC(=O)c4c(C)n(CC(C)(C)O)n(-c5ccccc5)c4=O)cc3F)ccnc2c1 -39%
CCOc1ccc2nc(N3CCC(C(=O)Nc4ccc(Br)cc4F)CC3)sc2c1 6.93%
Cc1ccccc1OCC(=O)Nc1c(C)ccc2nsnc12 -0.0324%
CC(C)c1ccc(S(=O)(=O)c2nnn3c2nc(N2CCOCC2)c2sccc23)cc1 -9.14%
CC1CCN(S(=O)(=O)c2ccc3c(ccn3CC(=O)NCc3ccc(N(C)C)cc3)c2)CC1 -32%
COc1ccc(Cl)cc1NC(=O)Cn1nc(C(F)(F)F)c2c1CCC2 -9.47%
COc1ccc(CCC(=O)NCc2nc3cccnc3n2Cc2cccc(OC)c2)cc1 -14%
Cc1c(C(=O)Nc2ccccc2Br)oc2ccc(S(=O)(=O)N3CCOCC3)cc12 -9.92%
CCC1CN(C(=O)N2CCC(C(=O)N3CCN(c4ccc(F)cc4)CC3)CC2)c2ccccc2O1 (stereo not drawn) -44.1%
COc1nc(N)nc2c1ncn2[C@@H]1O[C@H](CO)[C@@H](O)[C@@H]1O
CCCCc1nn2c(=O)cc(COC(=O)C(C)Oc3ccccc3)nc2s1 (stereo not drawn) 6.17%
Cc1ccc(NC(=O)C2CCN(C(=O)c3cnn(-c4ccccc4)c3-n3cccc3)CC2)cc1 -35.8%
CCOC(=O)N1CCc2c(sc3c2c(=O)n(-c2ccc(CC)cc2)c(=O)n3CC(=O)c2ccccc2)C1 -24.2%
COc1ccc(NS(=O)(=O)c2ccc3c(c2)CCCN3C(=O)C2CCC2)cc1OC -29.3%
O=C(NCCCN1CCN(c2ccccc2F)CC1)C1COc2ccccc2C1 (stereo not drawn) -10.9%
Cc1ccc(C(=O)NCC(=O)OCc2cc(=O)n3nc(C4CC4)sc3n2)cc1 -6.17%
COc1ccc(S(=O)(=O)Cc2ccc(C(=O)N3CCN(c4cc(C)ccc4C)CC3)o2)cc1 -14%
O=C(O)c1cccnc1SCc1cccc(Cl)c1 0%
O=C(Nc1cccc(-c2nc3ccccc3[nH]2)c1)c1c(F)cccc1F 1.09%
CCCNC(=O)c1c(NC(=O)c2ccc(C)cc2)sc2c1CCCCC2 0.533%
CC(=O)N1CCOc2cc(S(=O)(=O)Nc3cc(C(F)(F)F)ccc3Cl)c(C)cc21 -12.8%
CCSc1ncc(Cl)c(C(=O)N(Cc2ccc(C(C)(C)C)cc2)C2CCS(=O)(=O)C2)n1 (stereo not drawn) -34.3%
COc1ccc2c(c1)c1c(c(=O)n(Cc3ccccc3)c(=O)n1Cc1ccccc1)n2C -4.67%
CCOC(=O)c1c(C)oc2nc(C)nc(NCCCN3CCN(c4cc(Cl)ccc4C)CC3)c12 -10.7%
O=C(CCCN1CCC(O)(c2cccc(C(F)(F)F)c2)CC1)c1ccc(F)cc1 -14.4%
CCOC(=O)c1cccc(NC(=O)Nc2ccc3c(c2)N(C)C(=O)c2ccccc2S3)c1 -44.8%
Cc1ccc(-c2noc(-c3nnn(CC(=O)Nc4cccc(C(F)(F)F)c4)c3N)n2)cc1 24.2%
O=C(O)c1c2c(nc3ccc(S(=O)(=O)N4CCC(C(=O)NCc5ccc(Cl)cc5)CC4)cc13)CCCC2 4.12%
CCCCCOc1ccc(NC(=O)Cn2c(-c3cncs3)nc3ccccc32)cc1 -27%
COc1cccc(CNC(=O)Cn2c(SCC(=O)Nc3ccc(C)c(C)c3)nc3ccccc32)c1 0%
COc1ccc(S(=O)(=O)NCC(c2ccco2)N2CCN(c3ccccc3F)CC2)cc1C (stereo not drawn) -35.6%
COc1cc(/C=C/c2nc3cc(Cl)ccc3c(=O)n2-c2ccc(C)cc2C)cc(OC)c1OC -5.28%
CSc1ccc(NC(=O)Cn2nnnc2-c2ccccc2F)cc1 2.75%
Cc1cc(Nc2cccc(C(F)(F)F)c2)nc2ccc(NC(=O)c3cccnc3)cc12 -92.5%
CCOC(=O)c1c(C)oc2nc(C)nc(N3CCN(c4cccc(C)c4C)CC3)c12 -2.41%
Cc1cccc(OCCSc2nc3ccccc3n2CC(=O)N2CCOCC2)c1C -29.7%
CCOc1ccc(S(=O)(=O)Nc2ccc(OC)c(Cl)c2)c2cccnc12 -26.4%
Cc1ccc(NC(=O)C2CCCN(S(=O)(=O)c3c(C)nn(C)c3C)C2)c(C)c1 (stereo not drawn) -21.2%
CCOc1ccc(C2C(C(N)=O)=C(C)Nc3nc(-c4cccc(Cl)c4)nn32)cc1OC (stereo not drawn) -22.2%
CC[C@@H]([C@H](C)O)n1ncn(-c2ccc(N3CCN(c4ccc(OCC5CO[C@@](Cn6cncn6)(c6ccc(F)cc6F)C5)cc4)CC3)cc2)c1=O (stereo partly drawn) -21.8%
CCN1C(=O)c2ccccc2S(=O)c2ccc(C(=O)NCc3ccccc3OC)cc21 (stereo not drawn) -16.5%
CC1Cn2cc(C(=O)Nc3ccccc3C(F)(F)F)c(=O)c3c(Cl)ccc(c32)O1 (stereo not drawn) -5.73%
CC(C)Oc1ccc(C(=O)Nc2nc3c(s2)CC(C(C)(C)C)CC3)cc1 (stereo not drawn) -25.2%
O=C(NCC(c1ccc2c(c1)OCO2)N1CCN(c2ccccc2)CC1)c1ccccc1 (stereo not drawn) -22.2%
Cc1oc2ncn(CC(C)C)c(=O)c2c1C(=O)N(Cc1ccccc1)C(C)C -7.13%
Cc1nc2nc(C(F)(F)F)[nH]n2c(=O)c1Cc1ccccc1 7.07%
CN(C)c1ccccc1CN1CCCN(Cc2ccccc2N(C)C)C1c1ccncc1 -9.35%
Cc1ccc(Cn2c(C)c3cnn(CC(=O)N4CCN(c5ccc(F)cc5)CC4)c(=O)c3c2C)cc1 -85.5%
COc1cc(OC)c(NC(=O)c2cn(C)c(=O)c3cc(OC)c(OC)cc23)cc1Cl -3.91%
O=C(/C=C/c1ccccc1)N1CCN(Cc2cc(=O)n3nc(-c4ccccc4Cl)sc3n2)CC1 16.6%
c1ccc(CNCCNCc2ccccc2)cc1 -4.2%
C#C[C@]1(OC(C)=O)CC[C@H]2[C@@H]3CCC4=C/C(=N/O)CC[C@@H]4[C@H]3CC[C@@]21CC -50.8%
O=C(CN1C(=O)C2(SCC(=O)N2c2ccc(Cl)cc2)c2ccccc21)NCCc1ccccc1 (stereo not drawn) -14.8%
Cc1ccc(O)c(NC(=O)CCSc2nc(-c3ccco3)cc(C(F)(F)F)n2)c1 -12.8%
COc1ccc(Cl)cc1NS(=O)(=O)c1c(C)[nH]c(=O)[nH]c1=O 2.19%
CCOc1ccccc1NC(=O)c1c(NC(=O)c2ccncc2)sc2c1CCC(C(C)(C)C)C2 (stereo not drawn) -0.498%
CCc1cccc(NC(=O)c2cccc3c2C(=O)N(C2CCCCC2)C3)c1 -6.76%
O=C(NCC(c1cccnc1)N1CCc2ccccc21)C(=O)Nc1ccccc1F (stereo not drawn) -9.26%
COc1nnc(-c2ccc(N3CCCCC3)c(NC(=O)c3ccccc3)c2)c2ccccc12 -15.3%
CC(NC(=O)c1cc(-c2ccc(Cl)cc2)on1)c1ccccc1 (stereo not drawn) -16.5%
CCOC(=O)c1nnn(CC(=O)NC(=O)Nc2ccc(F)cc2)c1C(=O)OCC 6.4%
COc1ccc(CNC(=O)c2ccc3c(c2)N(Cc2ccccc2)CCS3)cc1 -19.4%
CCN(CC)S(=O)(=O)c1ccc(C(=O)O)cc1 -10%
CCOc1ccccc1N1CC(c2nc3ccccc3n2CCOc2ccccc2OC)CC1=O (stereo not drawn) -45.1%
Cn1nc(-c2ccc(C(=O)Nc3ccc(OC(F)(F)F)cc3)cc2)c2ccccc2c1=O -46.7%
COc1ccc(-c2nnc(SCC(=O)c3ccc([N+](=O)[O-])cc3)o2)cc1OC 6.24%
O=C(NCc1ccccc1Cl)C(=O)NCC(c1cccs1)S(=O)(=O)c1ccccc1 (stereo not drawn) -29.8%
Cc1ccc(-n2c(SCc3ccccc3C)nc3[nH]ncc3c2=O)cc1C -30.5%
N#C/C(=C\c1ccc(-c2ccc(Cl)c(C(=O)O)c2)o1)c1nc2ccccc2[nH]1 5.06%
COc1ccc2c(c1)Cc1sc(NC(=O)c3ccc(Cl)cc3)nc1-2 -27.4%
Cc1cccn2c(=O)c3cc(C(=O)NC(C)c4ccccc4)c(=N)n(CCOCCO)c3nc12 (stereo not drawn) -5.08%
COc1ccc(Cl)cc1NC(=O)c1c(NCc2cccs2)sc2c1CCCC2 -12.6%
Cc1cccc(-n2ncc(C(=O)Nc3ccc4c(c3)OCO4)c2C2CCN(C(=O)OC(C)(C)C)CC2)c1 1.47%
Cc1ccc(S(=O)(=O)Nc2c(C)nc3nc(C)[nH]n3c2=O)c(C)c1 -16.5%
CN(C)c1ccc(NC(=O)CSC2=Nc3ccccc3C3=NC(CC(=O)NCc4ccc5c(c4)OCO5)C(=O)N23)cc1 (stereo not drawn) -0.735%
Oc1ccc(NCc2ccccc2OCc2ccccc2Cl)cc1 -11.1%
CC(C)C(=O)c1cc2c(cc1NC(=O)c1ccccc1F)OCCO2 -15.9%
Cc1ccc(C(=O)c2oc3ccccc3c2NC(=O)COc2ccc(C(C)(C)C)cc2)cc1 8.37%
Cc1ccc(NC(=O)Cn2cnc3c(oc4ccccc43)c2=O)cc1 19.3%
COC(=O)c1ccc(NC(=O)CSc2nc3c(c(=O)n(C)c(=O)n3C)n2Cc2ccccc2)cc1 9.15%
COc1ccc(C(=O)NCc2nnc(SCC(=O)Nc3ccc(F)cc3)n2-c2ccccc2)cc1 -3.94%
CC(=O)N1CCc2cc(S(=O)(=O)CCC(=O)N3CCN(c4ccccc4F)CC3)ccc21 -23.3%
Cc1cc(Nc2ccc(Cl)cc2)n2cnnc2n1 -4.3%
COc1ccccc1Cc1nc2ccccc2nc1SCC(=O)N1CCCc2ccccc21 -7.93%
Cc1cccc(N2CCN(C(=O)CN3C(=O)COc4ccc(S(=O)(=O)N5CCCC5)cc43)CC2)c1C -10.4%
N#C/C(=C\c1c(Oc2ccc(F)cc2)nc2ccccn2c1=O)c1nc2ccccc2s1 -8.51% [at 11.5 µM, percent change from vehicle, -100% = no light]
